# Measured values reported in the supplement of paper PMC3334620.
# Over roughly 33,000 sequences, “E-score (-0.5 to 0.5)” has its median near -0.013; the highest 2% begin near 0.3. Some of the results follow.
# Target: T1, Msn1 (UniProt P22148)
# T1 sequence: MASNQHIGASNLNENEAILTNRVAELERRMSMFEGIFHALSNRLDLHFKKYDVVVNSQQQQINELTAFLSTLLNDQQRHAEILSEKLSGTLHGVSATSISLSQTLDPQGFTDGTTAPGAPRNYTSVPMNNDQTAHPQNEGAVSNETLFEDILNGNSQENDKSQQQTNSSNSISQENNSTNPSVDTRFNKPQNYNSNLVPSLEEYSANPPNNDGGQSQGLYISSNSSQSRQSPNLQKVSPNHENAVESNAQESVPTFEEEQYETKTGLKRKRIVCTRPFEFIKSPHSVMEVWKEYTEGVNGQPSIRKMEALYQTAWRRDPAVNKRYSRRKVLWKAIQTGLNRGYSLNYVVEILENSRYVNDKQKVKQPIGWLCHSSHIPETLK
# Experiment: PBM E-score (8-mer binding enrichment) (E-score (-0.5 to 0.5)); higher = stronger / more preferred TF binding; most listed sequences are background and not binding sites
# Details: protein concentration: 200 nM; construct: GST-full length
# In short: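 Bound GST-tagged yeast transcription factors, applied at about 100-200 nM to double-stranded universal all-10-mer Agilent arrays, were detected with fluorescent anti-GST. Scans were normalised with masliner. A modified Wilcoxon-Mann-Whitney statistic, the E-score, was assigned to each ungapped eight-base word pooled with its reverse complement by the Universal PBM Analysis Suite.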
row,Sequence,PBM E-score
1,CACCTTAA,0.0736
2,GTGTTGGA,0.036
3,CGGGTCAA,-0.0135
4,CCAGCCCC,-0.304
5,TGGTCAAA,0.196
6,AATTATGG,0.116
7,TGTGAACA,-0.0381
8,AATCAGGG,-0.19
9,ACGGGACG,-0.189
10,GTCAGCGA,-0.0344
11,ATGAATTG,0.023
12,GCACCCCA,-0.308
13,ATATTCAG,0.114
14,CCCACCAG,-0.236
15,ATGAGTCA,0.0385
16,CAAGTCCG,0.0478
17,AAATATGT,0.37
18,AAAATACT,0.0506
19,AGGTCTAA,0.0887
20,ACATGCCC,0.127
21,ACAATCGC,0.0491
22,CCCGTAGA,-0.3
23,ACCACGGT,-0.27
24,GTCATTGA,0.0439
25,AAATCGGA,0.102

row,Sequence,PBM E-score
1,GATTCTAA,0.0481
2,AAGTCCGG,0.22
3,ACCGCACA,-0.08
4,AAAGGCTA,-0.0614
5,ACCTATTC,-0.0726
6,GCGTCACA,-0.0278
7,ACGTCGGC,-0.059
8,CCTCCAAA,-0.0684
9,AGTAAGAG,0.0471
10,TAAACTGA,0.0472
11,CACACCGC,-0.133
12,AACATAGG,-0.0283
13,ACAAGGGA,-0.0265
14,ACGCTCGA,-0.0885
15,GCTGCGCA,-0.169
16,AGTTGTAG,-0.00068
17,AGCGGCCT,-0.175
18,AGCTGACA,0.0976
19,CCGTATTC,-0.0719
20,GCTAAGTA,0.0163
21,CCTTTGCA,-0.12
22,CAATTGAG,-0.0282
23,CTGCTTGC,-0.00023
24,GCCTAGGA,0.0781
25,ACACCCCG,-0.0945

row,Sequence,PBM E-score
1,GCCCCGCA,-0.108
2,CGGCTTTA,0.00647
3,ACAGCACA,0.0416
4,AACTAACG,0.0383
5,ACCTGTCT,0.0544
6,ACTTAGCT,-0.238
7,ATCTGTAA,0.0216
8,GCGAGAAC,-0.0229
9,TACGGCCA,-0.107
10,AGTCGACC,-0.117
11,GCATCCGA,-0.0879
12,ATGGGCAG,-0.0236
13,CCCGAAGA,0.044
14,CCAAACGA,0.0947
15,CGATCGGC,0.0853
16,GGACTAAA,0.238
17,AAAGTCGC,0.283
18,AATCAGAG,-0.0714
19,AACAGTAG,-0.0756
20,CGCCCCTA,-0.0917
21,CGGACTGA,0.0816
22,GTAACACA,0.178
23,CGTACTGA,0.0658
24,CAAGAGAA,0.0932
25,ACGACGTC,-0.105

row,Sequence,PBM E-score
1,ATTTTCTG,-0.0165
2,AAGCCCCA,-0.285
3,ACGGAGCT,-0.194
4,AGCAAGTC,-0.12
5,ATAACTGC,-0.0475
6,ATCTATCG,-0.0631
7,GTTCGACA,0.162
8,ACGTAATG,0.151
9,AGCTTTGG,-0.0201
10,AAACAGAT,0.103
11,CTGTCTCA,0.087
12,CAATATCC,0.113
13,AGGGCCAC,-0.121
14,AGTGCGGA,0.144
15,CCGGCTCC,-0.269
16,AGGGTCCC,-0.292
17,ATCCCTGA,-0.14
18,GCGAAGCC,-0.301
19,CCGAAAAG,0.211
20,TAAACTTA,0.00053
21,ATGGGAGA,-0.187
22,CTGTTTCA,0.157
23,GGAGAACC,-0.0953
24,AGGCGCGG,-0.0991
25,GTGCCAAC,-0.0599

row,Sequence,PBM E-score
1,CAGAGCGC,-0.144
2,AGATCCAT,-0.153
3,AAAATCGT,0.182
4,GCGAGCGC,0.0829
5,GCACTCAC,-0.284
6,GGCTTAAA,0.0688
7,CATTGGGC,-0.165
8,GACTTCAC,0.0986
9,ATCCTTCA,-0.0167
10,CGTCCACC,-0.226
11,AAAACAAT,0.127
12,TGAAGCCA,-0.143
13,AAGCTGGT,-0.026
14,CCACGTTC,-0.145
15,ATAACAGC,0.114
16,CTCTCAAA,0.00121
17,GGTAAGGA,-0.0712
18,ATTGCTTG,0.00964
19,AAGTACCA,0.107
20,AGACTCCA,-0.187
21,TAGTTGAA,0.0956
22,TATAGGCA,-0.0463
23,AATAATAA,0.132
24,TCACGCCA,-0.0336
25,GTCCAAGA,-0.0704

row,Sequence,PBM E-score
1,GCGTTTTA,-0.166
2,CACGATAC,-0.0869
3,AATTAAAT,0.201
4,CAGCCGAG,-0.0856
5,CCATTTCC,0.0324
6,GCATTGCC,0.034
7,CGCGGAAG,-0.0641
8,GGAACGTA,-0.143
9,AATAACTC,0.00363
10,ACCGGTGC,-0.114
11,AATAGTTC,0.182
12,AAGTATCG,-0.023
13,CCCAGCCC,-0.209
14,CCGCTAAA,-0.109
15,GGATCCAA,0.146
16,CATGATGA,0.0359
17,TACGCGAA,0.083
18,TTGCACAA,0.204
19,CGATCATC,-0.118
20,AAGGCGGT,0.088
21,AGGCTAGG,-0.329
22,AGCATGTG,-0.0619
23,AATCCAGT,0.126
24,CAACAGGC,0.0441
25,TATTTCAA,0.283

row,Sequence,PBM E-score
1,CCTTAGGA,0.0529
2,AAGGGGGA,-0.301
3,AGGTCTTG,0.0388
4,CGGAGGAA,-0.131
5,TGGCAACA,0.103
6,ATTGTATA,0.198
7,TACCGTCA,-0.0494
8,AAAGTTGC,-0.208
9,TAGCTCAA,-0.0254
10,ACCGTTTG,0.129
11,AGGGGTCC,-0.302
12,AGGGCCCC,-0.276
13,CGCCCAGA,-0.0991
14,TGAGCGCA,-0.156
15,CCTGGCGA,-0.15
16,CACGTCAA,0.0835
17,ATATCCAT,0.0453
18,AATTGGTC,0.15
19,AGATCTAT,0.0466
20,AGCGTGAC,0.0296
21,CAGGAACC,-0.182
22,CTCTTCCC,-0.153
